PubChem BioAssay AID360 (National Center for Advancing Translational Sciences (NCATS), 2006)
Among all 48,000 compounds or so, about 550 (1.1%) were called active. About 4% were inconclusive and are not listed. No stated cut-off is given here; in the data, active means potency below about 15 µM; inconclusive means mostly about 16 µM to 33 µM; inactive means weaker than that. This is one part of the list.

target: Lysosomal acid glucosylceramidase (Homo sapiens) (UniProt P04062); assay: Glucocerebrosidase; details: purified enzyme, resorufin glucoside fluorescence (screen aimed at inhibitors), 20 min;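 further: the screen sought inhibitors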
Source text: NCGC Assay Overview: Beta-glucocerebrosidase catalyzes the hydrolysis of beta-glucocerebroside to glucose and ceramide. The inherited deficiency of beta-glucocerebrosidase results in Gaucher disease, which is characterized by a wide variety of symptoms including hepatosplenomegaly, anemia, thrombocytopenia, bony lesions and bone marrow infiltration with characteristic storage cells, known as Gaucher cells. There are also forms of the disorder affecting the central nervous system. Patients with the same genotypes can manifest with diverse clinical presentations and it is believed that improper folding and trafficking of beta-glucocerbrosidase may contribute to the phenotypes observed. Low molecular weight molecules, acting as chaperones, may potentially restore trafficking of misfolded beta-glucocerebrosidase from the endoplasmic reticulum to the lysosomes, thereby enhancing functional lysosomal beta-glucocerebrosidase activity. Using normal beta-glucocerebrosidase, an assay was developed to screen for small molecule inhibitors that could potentially act as molecular chaperones on the mutant forms [developed with NIH investigator Dr. Ellen Sidransky's laboratory]. Two pro-fluorescent substrates were chosen for two screens against a small molecule library. One beta-glucocerebrosidase assay used Resorufin beta-D-Glucopyranoside (Marker Gene Technology Inc.), generating a red fluorescent product. The second assay used Fluorescein di-beta-D-Glucopyranoside, generating a blue fluorescent product. […] The IC50 values of Conduritol B Epoxide, a known glucocerebrosidase inhibitor, were determined to be 87.5 uM and 117 uM, respectively. The use of two difference pro-fluorescent substrates in the screens helped to eliminate false positives. All compounds were screened in a titration series resulting in AC50s (e.g., IC50s or EC50s).
NCGC Assay Protocol Summary: Both enzyme and substrate were diluted in buffer composed of 50mM citric acid/KH2PO4, 10mM sodium taurocholate and 0.01% tween-20 at pH 5.9. The final concentration of the enzyme was 0.2 nM in both assays. The compound library was titrated in 7 to 15 concentrations for the primary screens with a final concentration ranging from 0.6 nM to 50 uM. This particular assay protocol is for the "red" substrate, and it was performed in 1536-well plate format as follows: Red fluorescence substrate assay: 2 uL enzyme 23 nL compound 1 uL substrate (final concentration of 30 uM) Incubate at room temperature (RT) for 20 minutes Read the plate in Viewlux plate reader (Ex=548(7) and Em=600(10)).
Potency means the concentration at half of the fitted maximal effect.

Sequence of UniProt P04062 (P04062 whole entry, looked up): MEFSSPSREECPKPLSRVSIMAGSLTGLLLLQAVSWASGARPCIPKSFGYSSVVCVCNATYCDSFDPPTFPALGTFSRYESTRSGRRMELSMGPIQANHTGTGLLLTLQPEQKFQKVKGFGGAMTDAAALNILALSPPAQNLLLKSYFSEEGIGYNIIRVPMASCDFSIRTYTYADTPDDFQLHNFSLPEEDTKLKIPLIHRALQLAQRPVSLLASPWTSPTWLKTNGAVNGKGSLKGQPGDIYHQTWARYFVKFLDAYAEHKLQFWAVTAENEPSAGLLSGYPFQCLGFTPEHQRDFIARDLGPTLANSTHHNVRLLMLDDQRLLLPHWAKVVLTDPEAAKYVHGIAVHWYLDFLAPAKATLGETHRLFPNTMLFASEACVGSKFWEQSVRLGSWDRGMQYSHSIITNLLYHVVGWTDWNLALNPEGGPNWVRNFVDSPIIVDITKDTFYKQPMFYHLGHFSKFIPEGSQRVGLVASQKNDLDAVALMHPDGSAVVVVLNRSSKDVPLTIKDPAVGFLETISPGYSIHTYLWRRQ

SMILES | Potency
CCCCn1c(O)c(C=NC2CCCCC2N)c(=O)[nH]c1=O (stereo unspecified) | inactive: > 76.9 µM
O=C(NCc1ccccn1)c1ccccc1Cl | inactive: > 76.9 µM
O=C(NCC(c1cccnc1)N1CCN(c2ccc(F)cc2)CC1)Oc1ccccc1 (stereo unspecified) | inactive: > 76.9 µM
Cc1ccc(-c2nc3ccccc3c(=O)n2-n2cccc2)cc1 | inactive: > 76.9 µM
CCN1CCN(c2nc3c(c(=O)[nH]2)CCCC3)CC1 | inactive: > 76.9 µM
N#Cc1c(/N=C/c2c(O)n(Cc3ccco3)c(=O)[nH]c2=O)sc2c1CCCC2 | inactive: > 76.9 µM
O=C(Nc1ccc(OC(=O)N2CCCC2)cc1)N1CCOCC1 | inactive: > 76.9 µM
CN1C(=O)N(C)C(=O)C(CCc2ccccn2)(CCc2ccccn2)C1=O | inactive: > 76.9 µM
CC(=NCc1ccc2c(c1)OCO2)c1c(O)[nH]c(=O)[nH]c1=O | inactive: > 76.9 µM
O=c1[nH]c(=O)n(C2CCCCC2)c(O)c1C1NCCc2ccccc21 (stereo unspecified) | inactive: > 76.9 µM
COc1cccc(CNC2CN3CCC2CC3)c1OC (stereo unspecified) | inactive: > 76.9 µM
CCOc1cc(C(=O)N2CCC3(CC2)OCCO3)cc(OCC)c1OCC | inactive: > 76.9 µM
O=C1CC(C(=O)N2CCC3(CC2)OCCO3)CN1CCc1ccccc1 (stereo unspecified) | inactive: > 76.9 µM
C=CCn1c(O)c(C(=O)CCCCCC)c(=O)[nH]c1=O | inactive: > 76.9 µM
C1CNC2NCCNC2N1 (stereo unspecified) | inactive: > 76.9 µM
Cc1[nH]c2ccccc2c1/C=N/O | inactive: > 76.9 µM
CCC(=NCc1ccc(F)cc1)c1c(O)n(C)c(=O)n(C)c1=O | inactive: > 76.9 µM
CN(C)CP(=O)(Nc1ccccc1)N(C)C (stereo unspecified) | inactive: > 76.9 µM
Cc1cc(OCC(=O)Nc2c(C)n(C)n(-c3ccccc3)c2=O)c2c3c(c(=O)oc2c1)CCC3 | inactive: > 76.9 µM
O=c1[nH]c(=O)n(C2CCCCCC2)c(O)c1C=NCCCN1CCOCC1 | inactive
CC(C)n1nnnc1CN1CCN(C)CC1 | inactive: > 76.9 µM
CCOCC(=O)NC1CCSC1=O (stereo unspecified) | inactive: > 76.9 µM
O=C(Cc1ccccc1)OCCN1CCCCC1 | inactive: > 76.9 µM
Cc1n[nH]c(C)c1CCN | inactive: > 76.9 µM

SMILES | Potency
Cc1ccc(S(=O)(=O)N(C)CCCC(=O)N2CCN(c3ccccn3)CC2)cc1 | inactive: > 76.9 µM
O=C(NC1CC1)C1CSC(c2cccnc2)=N1 (stereo unspecified) | inactive: > 76.9 µM
Cc1ccc(C(=O)C2CN3CCC2CC3)cc1 (stereo unspecified) | inactive: > 76.9 µM
CCOC(=O)N1CCN(C(C)C(=O)c2c[nH]c3ccccc23)CC1 (stereo unspecified) | inactive: > 76.9 µM
CNP(=S)(NC)OCCOc1ccc(OC)cc1 | inactive: > 76.9 µM
COc1cc(C2NCc3ccccc3-n3cccc32)ccc1O (stereo unspecified) | inactive: > 76.9 µM
CC1CC2(O)c3no[n+]([O-])c3CCC2N1O (stereo unspecified) | inactive: > 76.9 µM
Cn1cc(CCC(=O)N2CCC3(CC2)OCCO3)c2ccccc21 | inactive: > 76.9 µM
OCCNc1c2c(nc3ccccc13)CCCC2 | inactive: > 76.9 µM
COc1ccc(OC)c(C2=NOC(C(=O)N3CCC4(CC3)OCCO4)C2)c1 (stereo unspecified) | inactive: > 76.9 µM
COc1ccc(C(=O)C(Cc2ccccc2)N(C)C)cc1 (stereo unspecified) | inactive
Cc1ccc2nsnc2c1-n1c(C)nc2ccccc2c1=O | inactive: > 76.9 µM
CCCc1[nH]nc2c1C1(C(=O)N(CC(N)=O)c3ccccc31)C(C(=O)OC)=C(N)O2 (stereo unspecified) | inactive: > 76.9 µM
C1=C(c2c[nH]c3ccccc23)CCNC1 | inactive: > 76.9 µM
C=CCN1C(=O)C2(C(C(=O)OCC)=C(N)Oc3ccccc32)C2=C1CCCC2=O (stereo unspecified) | inactive: > 76.9 µM
Cc1nc2ccccc2c(=O)n1-n1cnnc1 | inactive: > 76.9 µM
CCOC(=O)C(O)(c1ccc(N(CC)C(=O)OC)cc1)C(F)(F)F (stereo unspecified) | inactive: > 76.9 µM
Oc1cc2c(cc1CN1CCN(c3ccccc3)CC1)CCC2 | inactive: > 76.9 µM
CC1(C)CN=C(Nc2nc3ccccc3s2)S1 | inactive: > 76.9 µM
O=C(C1CCC(=O)N1Cc1ccc(F)cc1)N1CCC2(CC1)OCCO2 (stereo unspecified) | inactive: > 76.9 µM
CN1C(=O)N(C)C(=O)C2(Sc3ccccc3C2=O)C1=O | inactive: > 76.9 µM
O=C(c1cc2c(s1)CCCCCC2)N1CCC2(CC1)OCCO2 | inactive: > 76.9 µM
CCC1(CC)C(=O)NC(=NCCc2c[nH]c3ccccc23)NC1=O | inactive: > 76.9 µM
O=C1OCCC1NC1=NCCC1 (stereo unspecified) | inactive: > 76.9 µM

SMILES | Potency
Cc1cc(OCc2nn[nH]n2)c2c3c(c(=O)oc2c1)CCC3 | inactive: > 76.9 µM
CC1(O)C[C@]2(C)N(O)C3CCCC[C@@H]3N2O1 (stereo partly specified) | inactive: > 76.9 µM
CC(C)C(=O)c1cn(Cc2ccccc2C#N)c2ccccc12 | inactive: > 76.9 µM
CCCCn1c(NC(=O)c2ccco2)c(C(=O)OCC)c2nc3ccccc3nc21 | inactive: > 76.9 µM
CCCCc1nc2ccccc2c(=O)n1-c1ccc(O)cc1 | inactive: > 76.9 µM
CCOC(=O)CN1C(=O)C2(C(C#N)=C(N)Oc3ccccc32)C(C(=O)OC)=C1C (stereo unspecified) | inactive: > 76.9 µM
O=c1[nH]c(=O)n(CCC2=CCCCC2)c(O)c1C=NCCCn1ccnc1 | inactive: > 76.9 µM
Cc1cccc(N2CCc3c2nc2ccccc2c3N)c1 | inactive: > 76.9 µM
O=C(Cn1cnc2ccccc2c1=O)NCC(=O)N1CCC2(CC1)OCCO2 | inactive: > 76.9 µM
CC(=O)Nc1ccccc1OC(=O)N(C)C | inactive: > 76.9 µM
Cc1ccc(C2CC(=O)C(C=NCCN3CCN(C(=O)Cc4ccccc4)CC3)=C(O)C2)cc1 (stereo unspecified) | inactive: > 76.9 µM
Cc1cccnc1NC1=NCC(C)S1 (stereo unspecified) | inactive: > 76.9 µM
CN1CCC(N2CC3CC(C2)c2cccc(=O)n2C3)CC1 (stereo unspecified) | inactive: > 76.9 µM
O=C(COc1ccccc1)N1CCN(CC2CC3C=CC2C3)CC1 (stereo unspecified) | inactive: > 76.9 µM
CN1CCC(n2nccc2N)CC1 | inactive: > 76.9 µM
Cc1ccccc1N1C(=O)CC(=O)NC1=O | inactive: > 76.9 µM
O=C(c1cc(-c2cccnc2)nc2ccccc12)N1CCC2(CC1)OCCO2 | inactive: > 76.9 µM
CC1=CC(=O)C2=C(C)CC(O)C3C(C)C(=O)OC3C12 (stereo unspecified) | inactive: > 76.9 µM
COc1ccc2c(c1)CC1(CN2C)C(=O)NC(=O)N(CCc2ccccc2)C1=O (stereo unspecified) | inactive: > 76.9 µM
OCCN1C2CCC1CC(O)(c1ccc(F)cc1)C2 (stereo unspecified) | inactive: > 76.9 µM
CCOC(=O)c1c(-c2ccc(OC)cc2)oc2ccc(OC(=O)N(C)C)cc12 | inactive: > 76.9 µM
O=C1c2ccccc2C2(c3ccc(Cl)cc3)NCCN12 (stereo unspecified) | inactive: > 76.9 µM
CC1CN(O)C2CCc3nonc3C12O (stereo unspecified) | inactive: > 76.9 µM
Cc1ccc(Cn2nnnc2CN2CCC(n3nnc4cc(C(F)(F)F)ccc43)CC2)cc1 | inactive: > 76.9 µM

SMILES | Potency
CCCCn1c(O)c(C(C)=NC(C)c2ccccc2)c(=O)[nH]c1=O (stereo unspecified) | inactive: > 76.9 µM
Cn1cc(C(=O)N2CCC3(CC2)OCCO3)c2c3ccccc3n(C)c2c1=O | inactive: > 76.9 µM
O=C(Cc1ccccc1)OC(COCc1ccccc1)CN1CCOCC1 (stereo unspecified) | inactive: > 76.9 µM
N=Cc1c(O)n(-c2cccc(Cl)c2)c(=O)[nH]c1=O | inactive: > 76.9 µM
Cc1cc(N)n(C2CCN(C)CC2)n1 | inactive: > 76.9 µM
Cc1ccc(Cl)cc1N1CCN(CCN)CC1 | inactive
CCC(C)N1C(=O)NC(=O)C2(Cc3cc(C)ccc3N(C)C2)C1=O (stereo unspecified) | inactive: > 76.9 µM
C=CCN1C(=O)NC(=O)C(Cc2ccc(OC)c(OC)c2)C1=O (stereo unspecified) | inactive: > 76.9 µM
Cc1ccc2c(c1)C1CN(C)CCC1N2C(=O)c1ccco1 (stereo unspecified) | inactive: > 76.9 µM
CCC(C)NC(=O)c1c(N)n(Cc2ccc3c(c2)OCO3)c2nc3ccccc3nc12 (stereo unspecified) | active: 15.1 µM
O=C(Cc1cccs1)N1CCC2(CC1)OCCO2 | inactive: > 76.9 µM
O=C(c1ccc2nc3ccc(Cl)cc3c(=O)n2c1)N1CCC2(CC1)OCCO2 | inactive: > 76.9 µM
O=C(c1ccc2c(c1)ncn2C1CCCCC1)N1CCC2(CC1)OCCO2 | inactive: > 76.9 µM
Cn1c(O)c(C=NC2C(=O)C3(C)CCC2C3(C)C)c(=O)n(C)c1=O (stereo unspecified) | inactive: > 76.9 µM
COc1ccccc1-n1c(O)c(C=Nc2c(C)n(C)n(-c3ccccc3)c2=O)c(=O)[nH]c1=O | inactive: > 76.9 µM
c1ccc2sc(C3CCCNC3)nc2c1 (stereo unspecified) | inactive: > 76.9 µM
CC1(C)CC(=O)C(C=NCCN2CCN(C(=O)Cc3ccc(Cl)cc3)CC2)=C(O)C1 | inactive: > 76.9 µM
O=c1[nH]c(=O)n(CCc2ccc(F)cc2)c(O)c1C=NCCCN1CCOCC1 | inactive: > 76.9 µM
CCC(=O)Nc1cc(C(=O)N2CCC3(CC2)OCCO3)ccc1S(=O)(=O)c1ccc(C)cc1 | inactive: > 76.9 µM
Cc1ccc2nc(N3CCN(C)CC3)[nH]c2c1 | inactive: > 76.9 µM
c1cc2n(c1)-c1c(ccc3c1OCO3)CNC2c1ccc2c(c1)OCO2 (stereo unspecified) | inactive: > 76.9 µM
O=c1[nH]c(N2CCN(Cc3ccc4c(c3)OCO4)CC2)nc2c1CCC2 | inactive: > 76.9 µM
Fc1cccc(F)c1CN1CCN(Cc2c(F)cccc2F)CC1 | inactive: > 76.9 µM
CCOC(=O)c1cn2nc(OP(=S)(OCC)OCC)cc2nc1C | inactive: > 76.9 µM
